From the supplement of paper PMC3334620
Whole data set: some 33,000 sequences, median “E-score (-0.5 to 0.5)” near -0.04, cut for the highest 2% near 0.36. The list shows a part of the results.

Target: T1, Hmlalpha2 (UniProt P0CY09)
T1 sequence: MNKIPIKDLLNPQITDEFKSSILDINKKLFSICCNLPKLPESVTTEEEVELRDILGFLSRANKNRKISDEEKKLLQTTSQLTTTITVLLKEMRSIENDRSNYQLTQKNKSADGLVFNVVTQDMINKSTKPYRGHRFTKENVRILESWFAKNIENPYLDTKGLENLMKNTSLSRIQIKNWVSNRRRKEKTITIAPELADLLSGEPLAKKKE
Assay: PBM E-score (8-mer binding enrichment) (E-score (-0.5 to 0.5)); higher = stronger / more preferred TF binding; most listed sequences are background and not binding sites
Conditions: protein concentration: 200 nM; construct: GST-full length
Procedure, shortened: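 Full-length yeast transcription factors or their DNA-binding domains, GST-tagged and expressed with PURExpress, were applied at about 100-200 nM to universal all-10-mer Agilent arrays. These arrays had been made double-stranded by primer extension on fresh or once-stripped slides. Detection used fluorescent anti-GST, normalisation used masliner, and E-scores for ungapped eight-base words pooled with reverse complements came from the Universal PBM Analysis Suite.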

Row | Sequence | PBM E-score
1 | CATGATCA | 0.17
2 | CGACGCCC | -0.089
3 | ACCTGGGG | -0.269
4 | CCGCTTAA | 0.0712
5 | CATCAGCC | -0.123
6 | CACCGAGG | -0.153
7 | AATGAAAC | 0.103
8 | AACGCGGG | 0.188
9 | GATCAAGA | 0.00593
10 | ACCCTGGG | -0.116
11 | ACCTCCTG | -0.0659
12 | AAACTCGG | -0.0452
13 | CAGGTACC | -0.139
14 | AGTCTGCG | -0.0616
15 | CCTCCTCG | -0.306
16 | GAACGGGC | -0.266
17 | GAAGCGTC | -0.035
18 | ACTACAAC | 0.258
19 | AAAAACGA | 0.179
20 | TATGGGAA | -0.169
21 | CACGCAGA | 0.186
22 | TCTCCGCA | -0.191
23 | AGACCGAT | -0.055
24 | CACATGGG | -0.0456
25 | AGCATCCC | -0.348

Row | Sequence | PBM E-score
26 | AGTGGGTA | -0.0925
27 | GTTGGGGA | -0.0189
28 | CCTCCCGC | -0.0916
29 | ACAGGACC | -0.0846
30 | ACTTGTTC | 0.202
31 | GCGAGACC | -0.0811
32 | GCTGACCA | -0.303
33 | GAAGAACC | -0.121
34 | AATGAATT | 0.098
35 | GGTATCAA | -0.0124
36 | AGCACGAG | -0.00788
37 | CGAGAACG | -0.0885
38 | ATGTCGCG | 0.0866
39 | AGGGATCC | -0.382
40 | CGGAAAAG | -0.251
41 | CCACAACC | 0.0478
42 | CTAGAGCC | -0.203
43 | AACCAGCA | 0.00123
44 | AAGAGAGT | -0.16
45 | ATTTTTGC | 0.0758
46 | GCGTGAGA | -0.129
47 | ATTGTCGG | -0.0862
48 | AACCTTTC | -0.149
49 | GCGATTAC | 0.275
50 | CATCCTGC | -0.183

Row | Sequence | PBM E-score
51 | CCACTCAC | -0.156
52 | GACCGCGA | -0.265
53 | CCCCCCCA | -0.371
54 | ACTGGTGA | -0.189
55 | GATGCATA | -0.13
56 | CCTTAATA | -0.0606
57 | CACTCTCC | -0.064
58 | CAAGATAG | -0.0379
59 | GGTACAGA | -0.00788
60 | AAGCGCGG | -0.0646
61 | ATGAGGAA | 0.0377
62 | CCAAGCGA | -0.145
63 | GTATGAGA | 0.0381
64 | ATAGCAAA | 0.0897
65 | CATGCGGC | -0.0127
66 | GCAAGCCC | -0.0887
67 | AGTCACAA | 0.158
68 | ATACTGCG | -0.0383
69 | CATGGTCC | -0.0621
70 | CCCGACAC | -0.149
71 | CAAGTTGG | 0.0415
72 | ATCCCATA | -0.0474
73 | ACGCATCC | -0.125
74 | CCTTTTGA | 0.0788
75 | CAGCGTGG | -0.124

Row | Sequence | PBM E-score
76 | ACATAACC | 0.222
77 | ATTTGGTC | 0.0589
78 | AACCAACT | 0.115
79 | GTAGAGAC | 0.0602
80 | GCTGTTAC | -0.0161
81 | AAGTGTGC | -0.0583
82 | CACTACCA | 0.0358
83 | GGTCTAAC | -0.072
84 | CATGGAGG | -0.057
85 | GCCTGGTA | -0.0262
86 | ACCACACG | 0.253
87 | CTAGCGCC | -0.158
88 | AGTGCGCC | -0.169
89 | TCGATTAA | 0.312
90 | AACCCCTT | -0.117
91 | CGGCTATA | -0.0106
92 | CTCCAAAA | -0.125
93 | GACTCGAC | -0.0146
94 | CTTACCTA | -0.0366
95 | CAAGCACC | -0.00603
96 | AGTTTCTA | 0.0595
97 | GCCGAGAA | -0.131
98 | CTTTCAGC | -0.137
99 | CCTCGTTA | 0.194
100 | GTCAAATA | 0.178

Row | Sequence | PBM E-score
101 | GCGGCTTA | -0.112
102 | AAATTACA | 0.424
103 | CGCACTTC | -0.129
104 | CTTATATA | 0.178
105 | AAGATATC | -0.08
106 | CAACTAGA | 0.0606
107 | GAGTAGGA | -0.272
108 | CTATTTGC | -0.164
109 | GATGATGA | -0.155
110 | GTAGCCAC | -0.204
111 | CAACGTCC | -0.125
112 | AAGATTTG | -0.0746
113 | AAGATTGT | 0.175
114 | ATTACTCC | 0.104
115 | AGGGGAAA | -0.147
116 | AACTGCGC | -0.0259
117 | CCGTGACG | -0.012
118 | AATTGGCG | -0.0647
119 | CTATGTTA | 0.414
120 | CTTCAGAC | -0.102
121 | CCGTTTAC | 0.259
122 | CATGTACA | 0.458
123 | GATTAGAA | -0.142
124 | AATGGTCT | -0.0744
125 | ATGACCTC | -0.234

Row | Sequence | PBM E-score
126 | AGCATGAA | 0.0173
127 | CTCGCATC | -0.156
128 | ACTCAGCG | -0.113
129 | GGGCAAGA | -0.0917
130 | CACGGCTC | -0.0568
131 | GCGTACAA | 0.201
132 | ACTATGCG | 0.0742
133 | GAACCCCA | -0.247
134 | CGACTAAC | 0.19
135 | ATACAACC | 0.233
136 | ACCGATGA | -0.139
137 | ACTTGAAA | 0.00903
138 | CCCATTCA | -0.214
139 | CACGTAGA | 0.3
140 | ATGGCCGC | -0.0676
141 | AGGTTGTG | 0.114
142 | CGTTTGGC | -0.0756
143 | CACATTTA | 0.167
144 | CAGAAAGA | -0.0644
145 | CCGGGTCA | -0.162
146 | TGAAATCA | 0.0716
147 | GCATACTA | -0.0219
148 | CCTACCAG | -0.351
149 | CCTAGCTA | -0.193
150 | CGAGTGCC | -0.285

Row | Sequence | PBM E-score
151 | ATTTATCG | 0.0807
152 | CCTGGGCG | -0.173
153 | GGAGCTCC | -0.328
154 | AACAAGGA | 0.278
155 | GAGTTTGA | 0.0439
156 | ACCGTTAA | 0.0359
157 | ACGGAAAC | -0.0693
158 | CATATACG | 0.262
159 | ACCTGGCC | -0.079
160 | CAACCTGA | 0.0231
161 | CGTTCATA | 0.102
162 | CATGCCGC | 0.038
163 | CACGATAA | 0.285
164 | GGTCGGCA | -0.263
165 | AAGAGGCT | -0.137
166 | ACATCTTC | 0.0985
167 | TCCCTAGA | -0.15
168 | GATCGCGC | 0.122
169 | AAAGGCAG | 0.0179
170 | TAGTGGCA | -0.27
171 | CAACGATC | -0.117
172 | TCAACGGA | -0.00439
173 | ATAGAACG | 0.199
174 | TACGCAAA | 0.257
175 | ATCATCGA | 0.0634

Row | Sequence | PBM E-score
176 | AGTCGAGA | -0.111
177 | AATTAGAC | 0.156
178 | ATGACTAG | 0.145
179 | ATCCGGCA | -0.184
180 | ATTGGTCA | -0.0597
181 | AGGAGCGA | -0.176
182 | AGTAGTAA | 0.188
183 | CGACGGGA | 0.0111
184 | AGGGACCG | -0.25
185 | AGATATCG | -0.257
186 | CTCTTGAA | 0.0111
187 | CACTGTGA | -0.0701
188 | CTCTCGAC | -0.101
189 | AGCTGATC | -0.122
190 | GCGATTCA | -0.149
191 | GCCCTCTA | -0.28
192 | AGCATAAT | -0.00529
193 | CAGTTACA | 0.284
194 | AAAACATG | 0.434
195 | GCAGGGCA | -0.113
196 | ACGCTCAG | -0.145
197 | GCAAGAGC | -0.0932
198 | CACATCCG | -0.0158
199 | GAATCCCC | -0.188
200 | ACTCAGTC | -0.17

Row | Sequence | PBM E-score
201 | GCCAGTCA | -0.239
202 | CGATGACG | -0.13
203 | CGGTACAG | 0.00847
204 | CCGATCTC | -0.191
205 | AAGGACCT | -0.152
206 | CGGTTAAG | 0.114
207 | AGTGAATC | -0.114
208 | AGGTTCAC | -0.0765
209 | AGCGAGCT | 0.0336
210 | CGCGTGAG | 0.162
211 | GACCGGTA | -0.328
212 | AAACTACT | 0.144
213 | GAGTTCGC | -0.169
214 | AGTGTATA | 0.114
215 | CAATCTAA | 0.00357
216 | GCTAGTAA | 0.197
217 | ACTCCAGG | -0.0632
218 | AACGGAGA | -0.13
219 | ATATCGCG | 0.079
